Assay results taken from PubChem BioAssay AID1508623 (National Center for Advancing Translational Sciences (NCATS), 2021).
In all, about 48,000 compounds went through this assay and about 450 (0.94%) were called active. Roughly 19% stayed inconclusive and do not appear here. The call rests on the fitted dose curve; in most records, active means well fitted inhibition curve with a large enough effect; inconclusive means small, poorly fitted or top-dose-only effect; inactive means no such curve, though single readings can be large or run the other way. The list shows a part of the results.

Experiment: Primary qHTS for Identification of Small Molecule Inhibitors of Huntingtin Promoter Activity; further: nearly all actives have a fitted effect of over 50% in size
Conditions: HEK293 HTT promoter firefly luciferase reporter (activity 0% = vehicle and -100% = no light), 24 h; series mostly up to 57.5 µM; activity change, negative = inhibition: at the top concentration
Procedure, shortened: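 Quantitative HTS used concentration series of up to 57.5 uM final on HEK293 luciferase reporter cells, 24 h at 37 degrees C. Readout was Dual-Glo firefly luminescence.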
Potency means the concentration at half of the fitted maximal effect.

Activity change, negative = inhibition, inactive:
Cc1ccc(CNC(=O)c2ccc3c(c2)NC(=O)C(CS(=O)(=O)Cc2cccc(F)c2)N3)cc1 (centres undefined) -16.5%
CC(=O)c1ccc(NC(=O)c2cc3c(=O)oc4ccc(C)cc4c3s2)cc1 -13.1%
O=C(CSCn1nnc2c(=O)[nH]c(Cc3ccc(F)cc3)nc21)Nc1ccccc1 14.5%
Cc1cccc(N2C(=O)C(CC(=O)Nc3cccc(F)c3)N(CCc3ccncc3)C2=O)c1 (centres undefined) -9.96%
COc1ccc(NC(=O)C2=CC(c3ccc4c(c3)OCO4)=NS(=O)(=O)N2C)cc1OC -33.1%
O=S(=O)(c1ccc(Cl)cc1)c1nc(-c2ccccc2F)oc1NCc1ccccc1 -5.25%
COC(=O)c1cc2sccc2n1Cc1ccc(F)cc1Cl -18.7%
Cc1cc(N2CCN(c3cc(Cl)ccc3C)CC2)n2nc(-c3ccccc3)nc2n1 -3.63%
C[C@H](CCC(=O)O)[C@H]1CC[C@H]2[C@@H]3[C@H](O)C[C@@H]4C[C@H](O)CC[C@]4(C)[C@@H]3CC[C@]12C -3.87%
CCCCNC(=O)C1CCC(Cn2c(=O)c3sccc3n(CC(=O)Nc3ccccc3)c2=O)CC1 (centres undefined) -5.89%
O=C(COc1ccc(F)cc1)Nc1ccc2nc(SCCOc3ccccc3)sc2c1 -13.8%
COCCn1c(=N)c(C(=O)NC2CCCC2)cc2c(=O)n3cc(C)ccc3nc21 -3.21%
O=C(Nc1ccccc1C(=O)OCc1cc(=O)n2ccsc2n1)c1ccccc1Cl 5.62%
CCN(CC)CCNC(=O)c1cn(CC)c2ccc(S(=O)(=O)N3CCc4ccccc4C3)cc2c1=O -3.52%
CCC(=O)N1CCc2cc(Br)cc(S(=O)(=O)N3CCN(c4cc(C)ccc4C)CC3)c21 -3.07%
COc1cc(-c2cc3n(C)c(C)c(CCC(=O)NC4CCCCC4)c(=O)n3n2)cc(OC)c1OC -0.992%
CCOC(=O)c1cc(-c2ccc(C)cc2)n(CCC(=O)NCCc2ccc(C)cc2)c1C -22.9%
CCC(=O)N1CCc2cc(Br)cc(S(=O)(=O)CCC(=O)Nc3ccc(Cl)cc3)c21 -9.95%
Cc1cccc(C)c1NC(=O)CCC(=O)N1Cc2ccccc2Oc2ncccc21 -15.5%
COc1ccc(Oc2nc3c(c(=O)n(C)c(=O)n3C)n2Cc2ccc(Cl)cc2Cl)cc1 -12.6%
CC(=O)N(CC(O)CO)c1c(I)c(C(=O)NCC(O)CO)c(I)c(C(=O)NCC(O)CO)c1I (centres undefined) 14%
O=C(NC1CCN(Cc2ccccc2)CC1)c1ccc(Cn2c(=O)c3ccccc3n(Cc3cccc(F)c3)c2=O)cc1 -8.24%
Cc1ccc2c(=O)c(C(=O)c3ccc(Cl)cc3)cn(CC(=O)Nc3ccc4c(c3)OCCO4)c2n1 -18.7%

Potency, active:
COc1ccc(OC)c(CC2C(=O)Nc3ccc(Br)cc32)c1 (centres undefined) 20 µM
